Laboratory results published in the supplement of paper PMC10369915.
This is one part of the list. No stated cut-off is given here; in the data, active = 3.2 or more and inactive = the rest. Only a few entries rise above the background.

Legend:
Assay in all cases: enrichment score (SH2-bound / input frequency) (ratio); bacterial display of known human phosphotyrosine sites (pTyr-Var adds point mutants) read by sequencing; higher = stronger binding; tyrosines were phosphorylated by kinases first
Settings in all cases: peptide library: pTyr-Var
SHP2 C-SH2 domain E139D = target: SHP2 C-SH2 domain E139D
[1] = target: SHP2 C-SH2 domain wild-type
SHP2 N-SH2 domain L43F = target: SHP2 N-SH2 domain L43F
SHP2 N-SH2 domain T42A = target: SHP2 N-SH2 domain T42A
SHP2 N-SH2 domain T52S = target: SHP2 N-SH2 domain T52S
[2] = target: SHP2 N-SH2 domain wild-type

Measured: enrichment score
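Further: displayed peptides selected on beads carrying the immobilized SH2 domain, with library peptides lacking any tyrosine serving as negative controls.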

SARFRYLVAEK [LDHB_Y173_M175V]
inactive: SHP2 C-SH2 domain E139D 0.722 | [1] 0.521 | SHP2 N-SH2 domain L43F 0.737 | SHP2 N-SH2 domain T42A 0.663 | SHP2 N-SH2 domain T52S 0.673 | [2] 0.633

HGVSSYDTVIS [LDLR_Y465]
inactive: SHP2 C-SH2 domain E139D 0.757 | [1] 0.665 | SHP2 N-SH2 domain L43F 0.772 | SHP2 N-SH2 domain T42A 0.71 | SHP2 N-SH2 domain T52S 0.699 | [2] 0.806

FDNPVYQKTTE [LDLR_Y828]
inactive: SHP2 C-SH2 domain E139D 0.874 | [1] 1.09 | SHP2 N-SH2 domain L43F 1.01 | SHP2 N-SH2 domain T42A 0.924 | SHP2 N-SH2 domain T52S 0.782 | [2] 1.32

FDNSVYQKTTE [LDLR_Y828_P826S]
inactive: SHP2 C-SH2 domain E139D 0.649 | [1] 0.575 | SHP2 N-SH2 domain L43F 0.596 | SHP2 N-SH2 domain T42A 0.529 | SHP2 N-SH2 domain T52S 0.547 | [2] 0.736

HNQDDYSYPSR [LDLR_Y845_G844D]
inactive: SHP2 C-SH2 domain E139D 0.449 | [1] 0.449 | SHP2 N-SH2 domain L43F 0.786 | SHP2 N-SH2 domain T42A 0.688 | SHP2 N-SH2 domain T52S 0.517 | [2] 0.434

HNQDGYSFLSR [LDLR_Y845_P848L_YF]
inactive: SHP2 C-SH2 domain E139D 1.17 | [1] 1.15 | SHP2 N-SH2 domain L43F 0.649 | SHP2 N-SH2 domain T42A 0.615 | SHP2 N-SH2 domain T52S 0.799 | [2] 0.754

HNQDGYSFPSR [LDLR_Y845_YF]
inactive: SHP2 C-SH2 domain E139D 0.458 | [1] 0.578 | SHP2 N-SH2 domain L43F 0.495 | SHP2 N-SH2 domain T42A 0.554 | SHP2 N-SH2 domain T52S 0.586 | [2] 0.607

SSYSRYIMMPN [LEF1_Y114_G113R]
inactive: SHP2 C-SH2 domain E139D 0.784 | [1] 1.28 | SHP2 N-SH2 domain L43F 0.639 | SHP2 N-SH2 domain T42A 0.777 | SHP2 N-SH2 domain T52S 0.605 | [2] 0.596

SSFSGYIMMPN [LEF1_Y114_YF]
inactive: SHP2 C-SH2 domain E139D 0.815 | [1] 0.727 | SHP2 N-SH2 domain L43F 0.849 | SHP2 N-SH2 domain T42A 0.896 | SHP2 N-SH2 domain T52S 0.649 | [2] 0.614
